Consider 75 compounds from patent US11457629B2, “Heteroarylphenylaminoquinolines and analogues” (Bayer Aktiengesellschaft, priority 2017, dated 2022).

The procedure of this data set:
In the following, measurement of Log P values was performed according to EEC directive 79/831 Annex V.A8 by HPLC (High Performance Liquid Chromatography) on reversed phase columns with the following methods: • ^[a]
If more than one Log P value is available within the same method, all the values are given and separated by “+”.
Calibration was done with straight-chain alkan2-ones (with 3 to 16 carbon atoms) with known Log P values (measurement of Log P values using retention times with linear interpolation between successive alkanones). Lambda-max-values were determined using UV-spectra from 200 nm to 400 nm and the peak values of the chromatographic signals.
On to `CCn1nccc1-c1c(F)cccc1Nc1cnc2ccccc2c1Cl` [Example I-089], for which the logP was 3.48 ^[a]. On to `CCn1nccc1-c1c(F)cccc1Nc1cnc2ccccc2c1C` [Example I-090], for which the logP is 2.35 ^[a]. As for `CCn1nccc1-c1c(F)cccc1Nc1nc2ccccc2nc1C` [Example I-091], the logP is 3.33 ^[a]. On to `CCn1nccc1-c1c(F)cccc1Nc1cnc2c(F)c(F)ccc2n1` [Example I-093], for which the logP was 3.44 ^[a].

Take `Cn1nccc1-c1c(F)cccc1Nc1cnc2ccnn2c1` [Example I-094]: the logP was 2.00 ^[a]. In the case of `CCn1nccc1-c1c(F)cccc1Nc1cnc2ccnn2c1` [Example I-095] it was 2.12 ^[a]. Turning to `Cc1nc2c(F)c(F)ccc2cc1Nc1ccccc1-c1ccnn1Cc1ccccc1` [Example I-097], the logP was 4.08 ^[a]. Turning to `Fc1ccc2cc(Nc3ccccc3-c3ccnn3Cc3ccccc3)cnc2c1F` [Example I-098], the logP is 3.76 ^[a]. For `CC(C)n1nccc1-c1c(F)cccc1Nc1cnc2c(F)cccc2c1` [Example I-099], the logP is 3.29 ^[a].

In the case of `CC(C)n1nccc1-c1c(F)cccc1Nc1cnc2c(F)c(F)ccc2c1` [Example I-100], the logP is 3.55 ^[a]. `CC(C)n1nccc1-c1c(F)cccc1Nc1cnc2ccccc2c1Cl` [Example I-101]: the logP was 3.96 ^[a].

As to `Cc1c(Nc2cccc(F)c2-c2ccnn2C(C)C)cnc2ccccc12` [Example I-102], the logP was 2.76 ^[a]. Consider `Cc1nc2ccccc2nc1Nc1cccc(F)c1-c1ccnn1C(C)C` [Example I-103], for which the logP is 3.97 ^[a].

In the case of `Cc1nc2c(F)c(F)ccc2nc1Nc1cccc(F)c1-c1ccnn1C(C)C` [Example I-104], the logP was 4.21 ^[a]. With `CC(C)n1nccc1-c1c(F)cccc1Nc1cnc2c(F)c(F)ccc2n1` [Example I-105], the logP was 3.85 ^[a]. In the case of `CC(C)n1nccc1-c1c(F)cccc1Nc1cnc2ccnn2c1` [Example I-106], the logP is 2.51 ^[a]. Then `Cc1cc(-c2c(F)cccc2Nc2cc3ccc(F)c(F)c3nc2C)n(C)n1` [Example I-107], with 3.23 ^[a]; and `Fc1cccc2cc(Nc3ccccc3-c3ccnn3-c3ccccc3)cnc12` [Example I-108], with 3.29 ^[a]. Take `Cc1ccc(F)c(-c2ccnn2C)c1Nc1cc2ccc(F)c(F)c2nc1C` [Example I-109]: the logP is 3.11 ^[a]. Regarding `Cc1cc(C)c(Nc2cc3ccc(F)c(F)c3nc2C)c(-c2ccnn2C)c1F` [Example I-110], the logP is 3.50 ^[a]. Regarding `Cc1ccc(F)c(-c2c(Br)cnn2C)c1Nc1cc2ccc(F)c(F)c2nc1C` [Example I-111], the logP was 3.59 ^[a]. For the compound `Cc1ccc(Nc2c(C)nc3c(F)c(F)ccc3c2C)c(-c2c(Br)cnn2C)c1F` [Example I-112], the logP is 4.25 ^[a].

For the compound `Cc1cc(C)c(Nc2cc3ccc(F)c(F)c3nc2C)c(-c2c(C)cnn2C)c1F` [Example I-113], the logP was 3.59 ^[a].

In the case of `Cc1ccc(Nc2c(C)nc3c(F)c(F)ccc3c2C)c(-c2ccnn2C)c1F` [Example I-114], the logP is 3.72 ^[a].

For the compound `Cc1cc(C)c(Nc2cc3ccc(F)c(F)c3nc2C)c(-c2c(Br)cnn2C)c1F` [Example I-115], the logP was 3.99 ^[a]. On to `Cc1c(Nc2ccc(F)c(F)c2-c2ccnn2C)cnc2ccccc12` [Example I-117], for which the logP was 1.95 ^[a]. With `Fc1cccc(Nc2cnc3c(F)c(F)ccc3n2)c1-c1ccnn1CCc1ccccc1` [Example I-118], the logP is 4.41 ^[a].

Regarding `Cc1c(Nc2cccc(F)c2-c2ccnn2CCc2ccccc2)cnc2ccccc12` [Example I-119], the logP was 3.29 ^[a]. In the case of `Fc1cccc(Nc2cnc3nccn3c2)c1-c1ccnn1CCc1ccccc1` [Example I-120], the logP was 1.79 ^[a]. Turning to `Fc1cccc(Nc2cnc3c(F)c(F)ccc3c2)c1-c1ccnn1CCc1ccccc1` [Example I-121], the logP is 4.08 ^[a]. `Cc1nc2c(F)c(F)ccc2cc1Nc1cccc(F)c1-c1ccnn1CCc1ccccc1` [Example I-122]: the logP was 4.34 ^[a]. Consider `Fc1cccc(Nc2cnc3ccnn3c2)c1-c1ccnn1CCc1ccccc1` [Example I-123], for which the logP is 3.09 ^[a]. In the case of `Fc1cccc(Nc2cnc3c(F)cccc3c2)c1-c1ccnn1CCc1ccccc1` [Example I-124] it was 3.29 ^[a]. Regarding `c1ccc(Cn2nccc2-c2ccccc2Cc2cnc3ccccc3c2)cc1` [Example I-125], the logP is 2.75 ^[a]. Consider `c1ccc(-c2cc[nH]n2)c(Cc2cnc3ccccc3c2)c1` [Example I-126], for which the logP is 1.53 ^[a]. For `CC(C)n1nccc1-c1ccccc1Nc1cnc2c(F)c(F)ccc2c1` [Example I-127], the logP was 3.30 ^[a].

Take `CC(C)n1nccc1-c1ccccc1Nc1cnc2c(F)cccc2c1` [Example I-128]: the logP is 3.01 ^[a]. For the compound `Cc1nc2c(F)c(F)ccc2cc1Nc1ccccc1-c1ccnn1C(C)C` [Example I-129], the logP was 3.58 ^[a]. In the case of `Cc1ccc(Nc2nc3ccc(F)c(F)c3nc2C)c(-c2ccnn2C)c1F` [Example I-130] it was 3.37 ^[a]. As to `Cc1cc(C)c(Nc2nc3ccc(F)c(F)c3nc2C)c(-c2c(Br)cnn2C)c1F` [Example I-131], the logP was 3.74 ^[a].

As to `CCn1nccc1-c1cc(F)ccc1Nc1cnc2c(F)c(F)ccc2n1` [Example I-135], the logP is 3.27 ^[a].

In the case of `Fc1ccc2nc(Nc3ccccc3-c3ccnn3CCc3ccccc3)cnc2c1F` [Example I-136], the logP is 4.27 ^[a]. For `Cn1nccc1-c1cc(F)ccc1Nc1cnc2ccnn2c1` [Example I-137], the logP is 1.95 ^[a]. With `c1ccc(CCn2nccc2-c2ccccc2Nc2cnc3ccnn3c2)cc1` [Example I-138], the logP is 3.02 ^[a].

Regarding `CCn1nccc1-c1ccccc1Nc1cnc2ccnn2c1` [Example I-139], the logP is 2.10 ^[a]. `Cn1nccc1-c1ccccc1Nc1cnc2ccnn2c1` [Example I-140]: the logP is 1.88 ^[a]. In the case of `Fc1ccc(Nc2cnc3ccnn3c2)c(-c2ccnn2CCc2ccccc2)c1` [Example I-141] it was 3.02 ^[a]; in that of `CCn1nccc1-c1cc(F)ccc1Nc1cnc2ccnn2c1` [Example I-142], 2.17 ^[a]. For `Cn1nccc1-c1cc(F)ccc1Nc1cnc2c(F)cccc2c1` [Example I-143], the logP is 2.64 ^[a]. In the case of `CCn1nccc1-c1cc(F)ccc1Nc1cc2ccc(F)c(F)c2nc1C` [Example I-144], the logP is 3.27 ^[a]. As for `Cc1nc2c(F)c(F)ccc2cc1Nc1ccc(F)cc1-c1ccnn1CCc1ccccc1` [Example I-145], the logP is 4.20 ^[a].

As to `Cc1nc2c(F)c(F)ccc2cc1Nc1ccccc1-c1ccnn1CCc1ccccc1` [Example I-146], the logP is 4.27 ^[a]. Then `Cc1nc2c(F)c(F)ccc2cc1Nc1ccc(F)cc1-c1ccnn1C` [Example I-147], with 2.96 ^[a].

Take `Cc1nc2c(F)c(F)ccc2cc1Nc1ccccc1-c1ccnn1C` [Example I-148]: the logP is 2.92 ^[a].

For the compound `CCn1nccc1-c1ccccc1Nc1cc2ccc(F)c(F)c2nc1C` [Example I-149], the logP is 3.27 ^[a].

Regarding `CCn1nccc1-c1cc(F)ccc1Nc1cnc2c(F)cccc2c1` [Example I-150], the logP was 2.90 ^[a]. `CCn1nccc1-c1ccccc1Nc1cnc2c(F)c(F)ccc2c1` [Example I-151]: the logP is 3.09 ^[a]. With `Cn1nccc1-c1ccccc1Nc1cnc2c(F)c(F)ccc2c1` [Example I-152], the logP was 2.80 ^[a]. Regarding `Cn1nccc1-c1cc(F)ccc1Nc1cnc2c(F)c(F)ccc2c1` [Example I-153], the logP is 2.86 ^[a]. Consider `Fc1ccc2cc(Nc3ccccc3-c3ccnn3CCc3ccccc3)cnc2c1F` [Example I-154], for which the logP was 4.03 ^[a]. Turning to `CCn1nccc1-c1ccccc1Nc1cnc2ccccc2c1C` [Example I-155], the logP was 1.95 ^[a].

Take `Cc1c(Nc2ccccc2-c2ccnn2C)cnc2ccccc12` [Example I-156]: the logP was 1.69 ^[a]. With `Cc1c(Nc2ccc(F)cc2-c2ccnn2C)cnc2ccccc12` [Example I-157], the logP was 1.72 ^[a].

Consider `Cc1nc2ccccc2nc1Nc1ccccc1-c1ccnn1C` [Example I-158], for which the logP was 2.57 ^[a]. Turning to `CCn1nccc1-c1ccccc1Nc1nc2ccccc2nc1C` [Example I-159], the logP is 3.06 ^[a]. For `CCn1nccc1-c1cc(F)ccc1Nc1nc2ccccc2nc1C` [Example I-160], the logP was 3.08 ^[a].

In the case of `Cc1nc2ccccc2nc1Nc1ccc(F)cc1-c1ccnn1CCc1ccccc1` [Example I-161], the logP was 4.20 ^[a]. With `Cn1nccc1-c1ccccc1Nc1cnc2c(F)cccc2c1` [Example I-162], the logP was 2.55 ^[a]. On to `CCn1nccc1-c1cc(F)ccc1Nc1cnc2c(F)c(F)ccc2c1` [Example I-163], for which the logP is 3.17 ^[a]. As to `CCn1nccc1-c1ccccc1Nc1cnc2ccccc2c1Cl` [Example I-164], the logP is 3.27 ^[a]. As for `Cn1nccc1-c1ccccc1Nc1cnc2ccccc2c1Cl` [Example I-165], the logP is 2.86 ^[a]. `Cn1nccc1-c1cc(F)ccc1Nc1cnc2ccccc2c1Cl` [Example I-166]: the logP is 2.90 ^[a]. With `Clc1c(Nc2ccccc2-c2ccnn2CCc2ccccc2)cnc2ccccc12` [Example I-167], the logP was 4.39 ^[a]. For `Fc1ccc(Nc2cnc3ccccc3c2Cl)c(-c2ccnn2CCc2ccccc2)c1` [Example I-168], the logP was 4.30 ^[a]. For the compound `CCn1nccc1-c1cc(F)ccc1Nc1cnc2ccccc2c1Cl` [Example I-169], the logP is 3.27 ^[a].
